Test in all cases: Primary Screen for Target Class Profiling of Small Molecule Inhibitors of Methyltransferases
The target of assay [1] is Glycine N-methyltransferase (Homo sapiens) (UniProt Q14749). As to conditions: purified enzyme, MTase-Glo SAH luminescence; measured here: GNMT inhibition; at 40 µM; stronger effect = lower value. In outline:
(§1)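 Each enzyme was assayed with SAM and its substrate. SAH formation detected by MTase-Glo luminescence; single-point 40 uM screen[…].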

Assay [2] deals with Guanidinoacetate N-methyltransferase (Homo sapiens) (UniProt Q14353). Particulars: purified enzyme, MTase-Glo SAH luminescence; measured here: GAMT inhibition; at 40 µM; stronger effect = lower value. In outline: as §1
Assay [3] addresses Histamine N-methyltransferase (Homo sapiens) (UniProt P50135). Particulars: purified enzyme, MTase-Glo SAH luminescence; measured here: HNMT inhibition; at 40 µM; stronger effect = lower value. In outline: as §1
Assay [4] deals with Nicotinamide N-methyltransferase (Homo sapiens) (UniProt P40261). As to conditions: purified enzyme, MTase-Glo SAH luminescence; measured here: NNMT inhibition; at 40 µM; stronger effect = lower value. In outline:
as §1

Assay [5] concerns the target Phenylethanolamine N-methyltransferase (Homo sapiens) (UniProt P11086). As to conditions: purified enzyme, MTase-Glo SAH luminescence; measured here: PNMT inhibition; at 40 µM; stronger effect = lower value. In outline:
as §1

Some of the results follow. Further columns of the screen follow, without active or inactive calls.
% is set by controls: 0 for no effect and ±100 for the full control effect.

In the case of `O=C(CCc1nnc2n(CCc3ccccc3)c(=O)c3ccccc3n12)NCc1ccc(Cl)cc1`, the activity change, negative = inhibition was -4.97% in assay [1]; 0% in assay [2]; 1.97% in assay [3]; 5.66% in assay [4]; -2.44% in assay [5].

With `COc1ccc(CNC(=O)c2cc3n(n2)CC(C)(C(=O)NC2CCCC2)N(C)C3=O)cc1` (stereo not drawn), the activity change, negative = inhibition came to 9.22% in assay [1]; 0% in assay [2]; 6.18% in assay [3]; 0.515% in assay [4]; 3.72% in assay [5].

`Cc1ccccc1Cn1cc(-c2ccncc2)cc1C(=O)N1CCCC1`: the activity change, negative = inhibition in assay [1] is -8.84%; in assay [2], -3.61%; in assay [3] it was -7.52%; in assay [4], -22.4%; in assay [5], 5.4%.

For `COc1c2c(c(CO)c3c1C(=O)OC3)OC1(C)CCC3(O)C(C)(C)OC(=O)CCC3(C)C1C2` (stereo not drawn), the activity change, negative = inhibition was 0.377% in assay [1]; 1.24% in assay [2]; 11.7% in assay [3]; -11.3% in assay [4]; -5.64% in assay [5].

Consider `Cn1nc(C(=O)N2CCOc3ccc(CCC(N)=O)cc3C2)c2ccccc21`, for which the activity change, negative = inhibition in assay [1] was -2.48%; in assay [2] it was -6.04%; in assay [3], -1.48%; in assay [4], -2.88%; in assay [5] it was -1.69%.

For `O=C(Nc1ccccc1F)N1CC2CCC(C1)N2Cc1ccc(-c2cc(F)cc(F)c2)cc1`, the activity change, negative = inhibition in assay [1] is -0.989%; in assay [2] it was -3.27%; in assay [3], -5.85%; in assay [4] it was -8.88%; in assay [5], -5.26%.

Turning to `COc1ccccc1CNC(=O)C1(C)Cn2nc(-c3ccccc3)cc2C(=O)N1CCC(C)C` (stereo not drawn), the activity change, negative = inhibition in assay [1] came to 5.75%; in assay [2], 0.819%; in assay [3] it was 7.73%; in assay [4] it was 8.63%; in assay [5], 2.66%.

For `CCN1CCN(Cc2ccc(Nc3ncc(F)c(-c4cc(F)c5nc(C)n(C(C)C)c5c4)n3)nc2)CC1`, the activity change, negative = inhibition in assay [1] was -83.4%; in assay [2] it was -62.9%; in assay [3] it was -75.8%; in assay [4], -69.1%; in assay [5] it was -74.1%.

As to `COCCc1ccc(OCC(O)CNC(C)C)cc1` (stereo not drawn), the activity change, negative = inhibition was 11% in assay [1]; 12.7% in assay [2]; 11.3% in assay [3]; -2.77% in assay [4]; 3.86% in assay [5].

Take `CN(C)C[C@@H]1CN(Cc2cccnc2)C[C@H]1NC(=O)CCn1cccn1`: the activity change, negative = inhibition was -1.66% in assay [1]; 2.15% in assay [2]; -0.078% in assay [3]; 0.68% in assay [4]; 5.44% in assay [5].

Consider `CCOC(=O)CNC(=O)C1(C)Cn2nc(-c3ccc(OC)cc3)cc2C(=O)N1C` (stereo not drawn), for which the activity change, negative = inhibition in assay [1] worked out at 2.37%; in assay [2], 0.946%; in assay [3], 4.88%; in assay [4], 9.69%; in assay [5], 2.16%.

Turning to `COc1cccc(NC(=O)Cn2c(=O)oc3cc(S(=O)(=O)N4CCCCC4)ccc32)c1`, the activity change, negative = inhibition in assay [1] was -0.687%; in assay [2], 0%; in assay [3], 5.63%; in assay [4], -3.85%; in assay [5], -29.7%.

In the case of `O=C(c1cc2n(n1)CC(c1ccc(Cl)cc1)OC2)N1CCCCC1` (stereo not drawn), the activity change, negative = inhibition in assay [1] is -2.38%; in assay [2], -2.28%; in assay [3], -0.025%; in assay [4], -4.96%; in assay [5], -8.55%.

For the molecule `O=C(NCCCc1ccccc1)C1CN(C2CCCC2)C(=O)N1` (stereo not drawn), the activity change, negative = inhibition in assay [1] is -8.28%; in assay [2] it was -6.46%; in assay [3], -4.57%; in assay [4] it was -7.95%; in assay [5], -9.2%.

Consider `Cc1ccc(CN2C(=O)c3cc(C(C)(C)C)nn3CC2(C)C(=O)NCc2ccccc2)cc1` (stereo not drawn), for which the activity change, negative = inhibition in assay [1] amounted to 4.54%; in assay [2], 0%; in assay [3], 7.91%; in assay [4], 5.32%; in assay [5], 2.89%.

`CC(C)CNC(=O)/C=C/CCCCc1ccc2c(c1)OCO2`: the activity change, negative = inhibition in assay [1] was -1.38%; in assay [2] it was 1.36%; in assay [3], 4.69%; in assay [4] it was -11.3%; in assay [5], -7.02%.

Turning to `CC(C)CNC(=O)c1ccc2c(=O)n(C(C)C)c3nn(CC(=O)Nc4ccc(Cl)cc4)c(=O)n3c2c1`, the activity change, negative = inhibition came to 3.24% in assay [1]; 0% in assay [2]; 6.88% in assay [3]; 4.28% in assay [4]; 5.68% in assay [5].

`Cc1ccc(Cn2c(=O)c3ccccc3n3c(CCC(=O)NCCN4CCCC4)nnc23)cc1`: the activity change, negative = inhibition is -9.95% in assay [1]; 0.569% in assay [2]; -47.5% in assay [3]; 2.67% in assay [4]; -6.89% in assay [5].

Turning to `Cc1ccc(OCCSc2ncccn2)c(Br)c1`, the activity change, negative = inhibition was 8.76% in assay [2], -34.9% in assay [4] and -1.14% in assay [5].

`Cc1ccc2c(c1)c(-n1cccc1)c1n2CC(C)(C(=O)NC2CCC(C)CC2)N(Cc2ccc(Cl)cc2)C1=O` (stereo not drawn): the activity change, negative = inhibition is -11.1% in assay [1]; 1.9% in assay [2]; -3.9% in assay [3]; -14.7% in assay [4]; -2.42% in assay [5].

As to `Cc1ccc(CCNC(=O)CCn2ccc3cc(S(=O)(=O)N4CCC(C)CC4)ccc32)cc1`, the activity change, negative = inhibition in assay [1] is 2.54%; in assay [2], 3.42%; in assay [3], 1.03%; in assay [4], -8.68%; in assay [5] it was -2.48%.

As for `O=C(NC1CCCCC1)c1ccc2oc(-c3ccnc(Cl)c3)nc2c1`, the activity change, negative = inhibition was -10% in assay [1]; 0.144% in assay [2]; -0.181% in assay [3]; -3.25% in assay [4]; 1.72% in assay [5].

For the molecule `CC(C)OCCCn1c(=O)c2ccccc2n2c(CCC(=O)N3CCN(c4ccccn4)CC3)nnc12`, the activity change, negative = inhibition was -15.4% in assay [1]; -0.403% in assay [2]; -19.4% in assay [3]; -4.26% in assay [4]; -1.45% in assay [5].

With `COc1ccc2c(c1)C(C(=O)N(Cc1ccc(N(C)C)cc1)c1ccc(C(C)C)cc1)CCC2` (stereo not drawn), the activity change, negative = inhibition in assay [1] is -1.04%; in assay [2] it was -16.4%; in assay [3] it was 1.02%; in assay [4], -32.3%; in assay [5], -6.53%.

As to `CCc1ccc(NC(=O)Cn2nc3n(CCCOC(C)C)c(=O)c4ccccc4n3c2=O)cc1`, the activity change, negative = inhibition is 6.61% in assay [1]; 0.906% in assay [2]; 7.98% in assay [3]; 5.04% in assay [4]; 6.92% in assay [5].

In the case of `CCCOc1c(CN2CCCNCC2)cc(Cl)cc1OC`, the activity change, negative = inhibition in assay [1] was -2.67%; in assay [2], 0.792%; in assay [3], -1.52%; in assay [4], -5.41%; in assay [5], -8.56%.

Consider `Cc1ccc(S(=O)(=O)NC[C@H]2OC[C@@H](NCc3ccc(S(C)(=O)=O)cc3)[C@@H]2O)cc1`, for which the activity change, negative = inhibition in assay [1] was -0.245%; in assay [2] it was 3.15%; in assay [3], 2.02%; in assay [4], -3.71%; in assay [5] it was 13.9%.

For `CN1C(=O)N(C)C2(CCN(CCOc3ccccc3)C2)C1=O` (stereo not drawn), the activity change, negative = inhibition was -2.16% in assay [1]; -0.688% in assay [2]; 1.25% in assay [3]; -7.18% in assay [4]; -2.78% in assay [5].

On to `Cc1cccc(N2CCN(C(=O)CCc3nnc4n(CCCOC(C)C)c(=O)c5ccccc5n34)CC2)c1C`, for which the activity change, negative = inhibition in assay [1] is -17.4%; in assay [2] it was 1.76%; in assay [3] it was -0.016%; in assay [4], -19.3%; in assay [5], -4.91%.

`COc1ccc2cc3n(c2c1)CC(C)(C(=O)NC1CCCCC1)N(CCN1CCCCC1C)C3=O` (stereo not drawn): the activity change, negative = inhibition in assay [1] is 1.43%; in assay [2] it was -0.925%; in assay [3] it was 3.13%; in assay [4], -1.59%; in assay [5] it was -1.76%.

The record behind these values is PubChem BioAssay AID1745853 (National Center for Advancing Translational Sciences (NCATS), 2022).
